{"source": "paper PMC4336329", "about": "(PLoS ONE, 2015)", "note": "Out of some 310,000 compounds screened, about 14,000 (4.5%) showed an effect of 50% or more. The effect is printed as a negative number. This is one part of the list.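 Note: peak tail current of the secondary pulse compared with the same well before compound.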"}
{"target": "human ether-à-go-go-related gene (hERG) potassium channel (human, UniProt Q12809)", "sequence (Q12809 whole entry, looked up)": "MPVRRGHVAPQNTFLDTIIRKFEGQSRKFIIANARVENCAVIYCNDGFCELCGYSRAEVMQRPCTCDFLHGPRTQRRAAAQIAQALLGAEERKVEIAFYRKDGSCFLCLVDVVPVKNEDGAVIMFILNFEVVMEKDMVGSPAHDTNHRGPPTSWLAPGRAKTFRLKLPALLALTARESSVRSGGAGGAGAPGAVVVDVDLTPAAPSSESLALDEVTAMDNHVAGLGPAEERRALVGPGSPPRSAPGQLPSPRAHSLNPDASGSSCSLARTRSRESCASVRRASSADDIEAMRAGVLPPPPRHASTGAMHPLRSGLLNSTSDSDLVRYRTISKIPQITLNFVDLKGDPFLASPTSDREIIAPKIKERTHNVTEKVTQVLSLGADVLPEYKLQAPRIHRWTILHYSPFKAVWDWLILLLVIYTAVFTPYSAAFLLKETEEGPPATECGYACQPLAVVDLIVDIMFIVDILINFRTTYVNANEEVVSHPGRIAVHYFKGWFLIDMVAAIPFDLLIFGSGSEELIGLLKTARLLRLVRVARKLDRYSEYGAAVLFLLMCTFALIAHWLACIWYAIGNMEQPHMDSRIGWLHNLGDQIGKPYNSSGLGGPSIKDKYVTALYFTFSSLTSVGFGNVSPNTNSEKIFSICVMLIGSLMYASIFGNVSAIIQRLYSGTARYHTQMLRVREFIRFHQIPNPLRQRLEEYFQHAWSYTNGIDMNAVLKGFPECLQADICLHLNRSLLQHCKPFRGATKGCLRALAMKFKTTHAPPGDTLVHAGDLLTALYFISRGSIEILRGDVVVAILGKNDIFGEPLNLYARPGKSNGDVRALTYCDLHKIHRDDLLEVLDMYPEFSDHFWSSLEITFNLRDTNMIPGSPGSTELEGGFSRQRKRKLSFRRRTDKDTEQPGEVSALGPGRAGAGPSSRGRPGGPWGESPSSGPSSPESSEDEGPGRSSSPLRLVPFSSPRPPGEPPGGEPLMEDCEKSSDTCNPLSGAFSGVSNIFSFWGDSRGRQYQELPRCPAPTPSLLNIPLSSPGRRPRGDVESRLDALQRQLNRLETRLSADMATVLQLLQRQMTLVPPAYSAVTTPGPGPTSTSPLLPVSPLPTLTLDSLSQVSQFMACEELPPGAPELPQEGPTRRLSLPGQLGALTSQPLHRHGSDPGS", "test": "primary screen, population patch clamp on CHO cells stably expressing hERG", "units": {"hERG current change (%, negative = inhibition) at 10uM": "%"}}
{"smiles": "CCOc1ccc(CN2CCNC(=O)C2CC(=O)NCCCC2CCCC2)cc1", "note": "(stereo not shown)", "hERG current change (%, negative = inhibition) at 10uM": -34.1}
{"smiles": "Cc1ccc2c(c1)NC(=O)C(CC(=O)NCc1ccc(F)cc1)O2", "note": "(stereo not shown)", "hERG current change (%, negative = inhibition) at 10uM": -9.72}
{"smiles": "CN(C)S(=O)(=O)c1cccc(C(=O)NCC2CCCCC2)c1", "hERG current change (%, negative = inhibition) at 10uM": -0.436}
{"smiles": "COc1ccc(-c2csc(NC(=O)c3cccc(S(=O)(=O)N4CCN(C)CC4)c3)n2)cc1", "hERG current change (%, negative = inhibition) at 10uM": 4.56}
{"smiles": "Nc1nc(NCc2ccco2)nc(Nc2ccccc2)c1[N+](=O)[O-]", "hERG current change (%, negative = inhibition) at 10uM": 7.73}
{"smiles": "CC(C)c1ccc(CSc2ccc(S(=O)(=O)N3CCOCC3)cn2)cc1", "hERG current change (%, negative = inhibition) at 10uM": -1.18}
{"smiles": "CN(C)S(=O)(=O)c1cc(C(=O)O)c(NC2CCCCC2)cc1Cl", "hERG current change (%, negative = inhibition) at 10uM": 10.7}
{"smiles": "N#CC1=C(SCC(=O)Nc2nccs2)NC(=O)CC1c1ccccc1", "note": "(stereo not shown)", "hERG current change (%, negative = inhibition) at 10uM": -25.3}
{"smiles": "CN1C(=O)/C(=C\\c2ccc(-c3ccccc3)o2)SC1=S", "hERG current change (%, negative = inhibition) at 10uM": 12.3}
{"smiles": "CCN1C(=O)c2cccc3c(S(=O)(=O)Nc4nc(C)cs4)ccc1c23", "hERG current change (%, negative = inhibition) at 10uM": 11.7}
{"smiles": "O=C(O)CCCC(=O)Nc1c(F)c(F)c(F)c(F)c1F", "hERG current change (%, negative = inhibition) at 10uM": 3.41}
{"smiles": "Cc1ccsc1/C=N/N=C/c1sccc1C", "hERG current change (%, negative = inhibition) at 10uM": 13.5}
{"smiles": "O=C(O)C(Cc1c[nH]c2ccccc12)NS(=O)(=O)c1ccccc1", "note": "(stereo not shown)", "hERG current change (%, negative = inhibition) at 10uM": -11.3}
{"smiles": "CC(=O)Nc1ccc(C(=O)/C=C/c2ccc[nH]2)cc1", "hERG current change (%, negative = inhibition) at 10uM": 8.36}
{"smiles": "CC1(C)C(C(=O)O)N2C(=O)C(NC(=O)Cc3ccccc3)C2S1=O.O", "note": "(stereo not shown)", "hERG current change (%, negative = inhibition) at 10uM": 4.23}
{"smiles": "CC(=O)c1ccccc1NC(=O)C1CC(=O)N(c2ccc3c(c2)OCCO3)C1", "note": "(stereo not shown)", "hERG current change (%, negative = inhibition) at 10uM": 6.61}
{"smiles": "Cn1c(=O)c2c(nc(NC3CCCCC3)n2CC(=O)C23CC4CC(CC(C4)C2)C3)n(C)c1=O", "hERG current change (%, negative = inhibition) at 10uM": 13.9}
{"smiles": "CCNc1nc(NC(C)C)nc(N(C)C#N)n1", "hERG current change (%, negative = inhibition) at 10uM": 1.09}
{"smiles": "C=CCn1nnnc1-c1cccc(Cl)c1", "hERG current change (%, negative = inhibition) at 10uM": 21.4}
{"smiles": "Cc1cc(N(C)C)nc(Nc2ccccc2)n1", "hERG current change (%, negative = inhibition) at 10uM": -56.8}
{"smiles": "O=C(NN=C1CCCCCC1)c1ccc2c(c1)OCO2", "hERG current change (%, negative = inhibition) at 10uM": 22}
{"smiles": "CC(C)C(C)(C#N)NC(=O)CSc1nnc(C(F)(F)F)n1C", "note": "(stereo not shown)", "hERG current change (%, negative = inhibition) at 10uM": 6.45}
{"smiles": "Cc1ccc(C)c(N2CCN(C(=O)Cn3cccc3)CC2)c1", "hERG current change (%, negative = inhibition) at 10uM": -19}
{"smiles": "Cc1nn(C)c(C)c1Nc1ccc(N2C(=O)C3CC=CCC3C2=O)cc1[N+](=O)[O-]", "note": "(stereo not shown)", "hERG current change (%, negative = inhibition) at 10uM": -7.96}
{"smiles": "COc1ccc(CCNC(=O)C(=O)NCCC2CCCCN2S(=O)(=O)c2ccccc2)cc1", "note": "(stereo not shown)", "hERG current change (%, negative = inhibition) at 10uM": 6.37}
{"smiles": "CC(C)C(=O)NCCc1nc(-c2ccccc2Cl)no1", "hERG current change (%, negative = inhibition) at 10uM": 16.1}
{"smiles": "Cc1ccc(-c2cc(C(F)(F)F)nc(SCC(=O)c3cccc([N+](=O)[O-])c3)n2)cc1", "hERG current change (%, negative = inhibition) at 10uM": 10.5}
{"smiles": "c1ccc(-c2nc3ccccc3[nH]2)cc1", "hERG current change (%, negative = inhibition) at 10uM": 8.78}
{"smiles": "CCOC(=O)C1C(=O)C=C(/C=C/c2ccc(N(C)C)cc2)CC1c1ccccc1", "note": "(stereo not shown)", "hERG current change (%, negative = inhibition) at 10uM": 12.5}
{"smiles": "O=C(NCC1CCC(C(=O)O)CC1)OCc1ccccc1", "note": "(stereo not shown)", "hERG current change (%, negative = inhibition) at 10uM": 3.13}
{"smiles": "CN(C)CC(O)COC(c1ccccc1)c1ccccc1", "note": "(stereo not shown)", "hERG current change (%, negative = inhibition) at 10uM": -51.6}
{"smiles": "COc1ccc(CNC(=O)CN(C)Cc2ccccc2F)cc1OC", "hERG current change (%, negative = inhibition) at 10uM": -23.3}
{"smiles": "CN1C(=O)/C(=C/c2cc(N=Nc3ccccc3)ccc2O)SC1=S", "hERG current change (%, negative = inhibition) at 10uM": -3.15}
{"smiles": "Cc1[nH]n(-c2ccccc2)c(=O)c1C=Nc1cccc(F)c1", "hERG current change (%, negative = inhibition) at 10uM": 8.86}
{"smiles": "CC(C)C(C(=O)Nc1ccc2c(c1)OCCOCCOCCOCCO2)N1C(=O)c2ccccc2C1=O", "note": "(stereo not shown)", "hERG current change (%, negative = inhibition) at 10uM": -38.7}
{"smiles": "O=C(O)CN1c2cccc3cccc(c23)S1(=O)=O", "hERG current change (%, negative = inhibition) at 10uM": 32.4}
{"smiles": "Cc1ccc(NC(=O)CSc2nc3nc(C)cc(C)c3c(=O)[nH]2)cc1", "hERG current change (%, negative = inhibition) at 10uM": -3.64}
{"smiles": "CC(=O)c1ccc(NC(=O)CSc2nccn2C)cc1", "hERG current change (%, negative = inhibition) at 10uM": 12.7}
{"smiles": "CCCCOc1ccc(C(=O)Nn2c(-c3cccs3)nc3ccccc3c2=O)cc1", "hERG current change (%, negative = inhibition) at 10uM": -1.72}
{"smiles": "CC(=O)Nc1ccc(S(=O)(=O)N2CCSCC2)cc1", "hERG current change (%, negative = inhibition) at 10uM": -1.03}
{"smiles": "CC1CCN(C(=O)c2ccccc2NC(=O)c2cccc(S(=O)(=O)N(C)C)c2)CC1", "hERG current change (%, negative = inhibition) at 10uM": -4.98}
{"smiles": "Cc1cnn(Cc2cccnc2)c1N", "hERG current change (%, negative = inhibition) at 10uM": 8.46}
{"smiles": "Cc1ccc(C)c(S(=O)(=O)N2CCN(C(=O)CN3C(=O)NC(C)(C)C3=O)CC2)c1", "hERG current change (%, negative = inhibition) at 10uM": 9.7}
{"smiles": "Br.Cc1ccc(C2=CSC3=NCCN23)cc1", "hERG current change (%, negative = inhibition) at 10uM": -4.96}
{"smiles": "Nc1cc(N)nc(SCC(=O)c2ccccc2)n1", "hERG current change (%, negative = inhibition) at 10uM": 7.29}
{"smiles": "CCN(CC)c1ccc(/C=N/NC(=O)Cc2nnc(NC(=O)Nc3ccccc3)s2)cc1", "hERG current change (%, negative = inhibition) at 10uM": 11.3}
